According to PubChem BioAssay AID1868 (National Center for Advancing Translational Sciences (NCATS), 2009):
The campaign covered roughly 270,000 compounds. About 20 (0.007%) were called active. The inconclusive results got no clear call from the source; some entries with a clear call stand among them for comparison. Calls follow the shape of the dose curve; as a rule, active = well fitted inhibition curve with a large enough effect; inconclusive = small, poorly fitted or top-dose-only effect, or effect the other way; inactive = flat fitted curve, though single readings scatter. A potency beside an inconclusive call is a rough fit, not a confirmed value.

biological target: Galactokinase (Homo sapiens) (UniProt P51570); test: qHTS Assay for Inhibitors of Human Galactokinase (GALK); settings: Purified GALK, Kinase-Glo residual ATP luminescence; series mostly up to 57.5 µM; activity change, negative = inhibition: at the top concentration
Chain of UniProt P51570 (P51570 whole entry, looked up): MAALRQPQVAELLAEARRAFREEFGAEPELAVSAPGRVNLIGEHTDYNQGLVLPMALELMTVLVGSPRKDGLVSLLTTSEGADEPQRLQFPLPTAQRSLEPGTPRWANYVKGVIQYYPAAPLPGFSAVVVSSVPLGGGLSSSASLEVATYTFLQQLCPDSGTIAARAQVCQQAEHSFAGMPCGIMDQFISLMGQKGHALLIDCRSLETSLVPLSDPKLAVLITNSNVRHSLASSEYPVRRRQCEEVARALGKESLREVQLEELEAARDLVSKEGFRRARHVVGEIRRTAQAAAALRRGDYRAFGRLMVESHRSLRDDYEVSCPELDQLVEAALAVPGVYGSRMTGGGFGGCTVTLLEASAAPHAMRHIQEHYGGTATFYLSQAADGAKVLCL
From the text: NIH Molecular Libraries Probe Production Centers Network [MLPCN] NIH Chemical Genomics Center [NCGC] MLPCN Grant: R03 MH085689-01 Assay Submitter (PI): Kent Lai (University of Utah School of Medicine, 50 N Mario Capecchi Drive, Salt Lake City, UT 84132) NCGC Assay Overview: Inherited deficiency of galactose-1-phosphate uridyltransferase (GALT) can result in a potentially lethal disorder called Classic Galactosemia (OMIM 230400). Several lines of evidence indicate that an elevated level of galactose-1-phosphate (gal-1-p), the product of galactokinase (GALK), is a major, if not sole, pathogenic mechanism in patients with classic galactosemia. Therefore, finding inhibitors of GALK is a potential novel therapy for this inherent metabolic disease and is the long term goal of this project. GALK (provided by the assay submitter) was assayed using ATP and D-(+)-Galactose (Sigma-Aldrich cat# G0750) as substrates. Promega Kinase-Glo Plus (cat# V3774) technology was used to detect the residual ATP following kinetic reaction. Briefly, the Kinase-Glo Plus contains Ultra-Glo [2] luciferase and D-luciferin which generates a bioluminescence signal from the remaining ATP.
NCGC Assay Protocol Summary: Three uL/well of ATP-buffer solution (35 uM ATP, 20mM HEPES pH8.0, 5 mM MgCl2, 60 mM NaCl, 1 mM DTT, 0.01% BSA final concentration) was dispensed into 1536-well, assay plates (Greiner, solid white medium-binding plates) with Aurora Discovery BioRAPTR Flying Reagent Dispenser (FRD; Beckton-Dickenson). Compound solution (23 nL) was transferred to the assay plate using the Kalypsys 1536-pin tool. One uL/well GALK-galactose solution (5 nM GALK, 100 uM galactose, 20 mM HEPES pH8.0, 5 mM MgCl2, 60 mM NaCl, 1 mM DTT, 0.01% BSA final concentration) was then added using the FRD yielding a total kinase reaction volume of 4 uL/ well. After 1 hour of room temperature incubation, 4 uL Kinase-Glo Plus reagent was added for a final assay volume of 8 uL/ well. Luminescence was detected with the ViewLux plate reader (Perkin Elmer, Waltham, MA) after 10 min incubation using a 1 sec exposure time and 2x binning.
% is scaled to controls: 0 for no effect and ±100 for the full control effect; potency is read from the fitted curve at half-maximal effect; tags tell the direction and shape of the fitted curve.

Row | Compound | Potency | activity change, negative = inhibition
1 | O=C1C(C2=C(O)c3ccccc3C2=O)=Nc2ccccc21 | inconclusive: 39.8 µM [falling, single point] | 
2 | CC(C)OC(=O)C(C(=O)C(F)(F)F)c1cc(NS(=O)(=O)c2ccc3ccccc3c2)c2ccccc2c1O (stereo unspecified) | inconclusive: 6.31 µM [falling, single point] | 
3 | O=C(NC1(O)C(=O)c2ccccc2C1=O)c1ccccc1 | inconclusive: 39.8 µM [falling, single point] | 
4 | COc1ccc(-c2ccc(C(C)=O)cc2)cc1[C@H]1[C@@H]2C=CCC[C@@]2(C)C(=O)N1Cc1ccccc1 |  | inactive: 5.13%
5 | COc1ccc(-n2nnc3c(=O)n(CC(=O)N4CCC(C)CC4)cnc32)cc1 | inconclusive: 5.62 µM [falling, single point] | 
6 | O=C(O)CSc1cc(NS(=O)(=O)c2cccc([N+](=O)[O-])c2)c2ccccc2c1O | inconclusive: 39.8 µM [falling, single point] | 
7 | O=C1C(=O)c2ccc(-c3ccccc3)cc2-c2ccccc21 | inconclusive: 10 µM [falling, partial curve] | 
8 | CC1(C)C=C2C(=NN(c3ccccc3)C(N)=C2C#N)CO1 | inconclusive: 28.2 µM [falling, single point] | 
9 | CCOC(=O)c1c(C)[nH]c2c1-c1ccccc1C(=O)C2=O | inconclusive: 3.98 µM [falling, single point] | 
10 | Cc1ccc(NC(=O)c2cnccn2)cc1S(=O)(=O)N(C)C |  | inactive: -1.14%
11 | COc1ccc(N=C2S/C(=C\c3ccc(OC(C)C(=O)O)c(OC)c3)C(=O)N2CCc2c[nH]c3ccccc23)cc1 (stereo unspecified) | inconclusive: 31.6 µM [falling, single point] | 
12 | CN1N=C(C(F)(F)F)CC1=O |  | inactive: 0.815%
13 | Cc1nc(SCc2cccc(F)c2)[nH]c(=O)c1C#N |  | inactive: -1.35%
14 | NS(=O)(=O)c1ccc(CCNC(=O)CNS(=O)(=O)c2cccc(Br)c2)cc1 |  | inactive: 1.29%
15 | Cc1c(CC(=O)N2CCN(C(=O)C3COc4ccccc4O3)CC2)c(=O)oc2cc(O)c(Cl)cc12 (stereo unspecified) |  | inactive: 8%
16 | COc1ccc(-n2cc(-c3ccccc3)c3c(N4CCN(CCO)CC4)ncnc32)cc1 | inconclusive: 6.31 µM [falling, single point] | 
17 | O=C1ON=C(c2ccccc2)/C1=C/c1ccc(O)c(O)c1 | inconclusive: 35.5 µM [falling, single point] | 
18 | Cc1cccc(-n2ncc3c(N(C)C4CCCCC4)ncnc32)c1 |  | inactive: 1.41%
19 | Cc1cc(O)c(C=O)c2c1C(=O)Oc1c(CO)c(O)c3c(c1O2)C(O)OC3=O (stereo unspecified) |  | inactive: -15.5%
20 | COc1ccc2oc(C(=O)OCC(=O)NC3CCCC3)c(C)c2c1 |  | inactive: 0.142%
21 | C[C@H](NC(=O)C1CCC(CNC(=O)[C@@H]2CCCN2C(=O)OC(C)(C)C)CC1)C(=O)O (stereo partly specified) | inconclusive: 39.8 µM [falling, single point] | 
22 | CC(C)=CCC1=C(OCC(=O)O)C(=O)c2ccccc2C1=O | inconclusive: 35.5 µM [falling, single point] | 
23 | O=C(COc1ccccc1)Nc1nnc(-c2ccc(Cl)cc2)o1 |  | inactive: -3.81%

Row | Compound | Potency | activity change, negative = inhibition
24 | CCOC(=O)C1(Cc2cccc(F)c2)CCN(C(=O)COC)CC1 | inconclusive: 35.5 µM [falling, single point] | 
25 | Fc1ccc(Nc2nc(NCc3ccco3)c3ccccc3n2)cc1 |  | inactive: 1.88%
26 | N=C1/C(=C\c2coc3ccccc3c2=O)C(=O)N=C2SC(c3ccncc3)=NN12 | inconclusive: 28.2 µM [falling, single point] | 
27 | Cc1noc(C(=O)Nc2sc3c(c2C#N)CCC3)c1Cl |  | inactive: 0.608%
28 | COC(=O)c1oc2ccccc2c1NC(=O)/C=C/C(=O)O | inconclusive: 35.5 µM [falling, single point] | 
29 | Cc1cccc(Nc2nc(N)nc(CSC(=S)N3CCOCC3)n2)c1 |  | inactive: 0.0174%
30 | CCOC(=O)c1c(C)oc2c1c1c(c3ccccc32)OCN(CCCC(=O)O)C1 |  | inactive: 4.17%
31 | Cc1noc(C)c1S(=O)(=O)Nc1ccc(C(=O)Nc2ccc(OC(F)(F)F)cc2)cc1 | inconclusive: 25.1 µM [falling, partial curve] | 
32 | COc1cc(/C=C/c2sc3ccccc3[n+]2CCCS(=O)(=O)[O-])ccc1O | inconclusive: 10 µM [rising, partial curve] | 
33 | N#Cc1c(N2CCCC2)nc(N)c2c(N)nc(N3CCCC3)cc12 | inconclusive: 28.2 µM [falling, single point] | 
34 | Cc1ccc(C(=O)O/N=C(\N)c2ccccn2)cc1 | inconclusive: 20 µM [rising, partial curve] | 
35 | CC(=O)c1ccc(NC(=S)Nc2cccc3cnccc23)cc1 | inconclusive: 35.5 µM [falling, single point] | 
36 | Fc1cccc(-c2n[nH]c(=S)n2-c2ccccc2)c1 |  | inactive: -1.2%
37 | COCCNc1nc(CSc2ccccc2)nc2sc(C)c(C)c12 |  | inactive: 1.98%
38 | O=c1[nH]c(/C=C/c2cccc([N+](=O)[O-])c2)c([N+](=O)[O-])c(=O)[nH]1 | inconclusive: 35.5 µM [falling, single point] | 
39 | Cc1occc1C(=O)N/N=C/c1ccc2c(c1)OCO2 | inconclusive: 11.2 µM [rising, partial curve] | 
40 | Cc1ccc(NS(=O)(=O)c2cc(NC(=O)C(C)Oc3ccccc3)ccc2C)c(C)c1 (stereo unspecified) | inconclusive: 39.8 µM [falling, single point] | 
41 | CCOC(=O)c1cc(-c2ccc(/C=C3/C(=O)N(c4ccc(C(=O)O)cc4)N=C3C)o2)ccc1Cl | inconclusive: 39.8 µM [falling, single point] | 
42 | N#Cc1c(NC(=O)c2ccc(Br)o2)n(-c2ccccc2)c2nc3ccccc3nc12 | inconclusive: 39.8 µM [falling, single point] | 
43 | Oc1c(Cl)cc(Cl)c(Cl)c1Cc1c(O)c(Cl)cc(Cl)c1Cl | inconclusive: 39.8 µM [falling, single point] | 
44 | Clc1ccccc1/C=C/C=N/Nc1nc(N2CCOCC2)nc(N2CCOCC2)n1 |  | inactive: -0.832%
45 | CCOC(=O)C1=C(C)OC2(O)c3ccccc3C(=O)C12O (stereo unspecified) | inconclusive: 31.6 µM [falling, single point] | 
46 | Cc1cc(/C=N/NC(=O)C(=O)NCc2ccccn2)c(C)n1-c1cccc(Br)c1 |  | inactive: -1.75%
